Test results: the supplement of paper PMC3334620
In all, about 33,000 sequences were measured (“E-score (-0.5 to 0.5)”: median about -0.054, highest 2% from about 0.35 on). The list shows a part of the results.

Molecular target: T1, Stb5 (UniProt P38699)
T1 sequence: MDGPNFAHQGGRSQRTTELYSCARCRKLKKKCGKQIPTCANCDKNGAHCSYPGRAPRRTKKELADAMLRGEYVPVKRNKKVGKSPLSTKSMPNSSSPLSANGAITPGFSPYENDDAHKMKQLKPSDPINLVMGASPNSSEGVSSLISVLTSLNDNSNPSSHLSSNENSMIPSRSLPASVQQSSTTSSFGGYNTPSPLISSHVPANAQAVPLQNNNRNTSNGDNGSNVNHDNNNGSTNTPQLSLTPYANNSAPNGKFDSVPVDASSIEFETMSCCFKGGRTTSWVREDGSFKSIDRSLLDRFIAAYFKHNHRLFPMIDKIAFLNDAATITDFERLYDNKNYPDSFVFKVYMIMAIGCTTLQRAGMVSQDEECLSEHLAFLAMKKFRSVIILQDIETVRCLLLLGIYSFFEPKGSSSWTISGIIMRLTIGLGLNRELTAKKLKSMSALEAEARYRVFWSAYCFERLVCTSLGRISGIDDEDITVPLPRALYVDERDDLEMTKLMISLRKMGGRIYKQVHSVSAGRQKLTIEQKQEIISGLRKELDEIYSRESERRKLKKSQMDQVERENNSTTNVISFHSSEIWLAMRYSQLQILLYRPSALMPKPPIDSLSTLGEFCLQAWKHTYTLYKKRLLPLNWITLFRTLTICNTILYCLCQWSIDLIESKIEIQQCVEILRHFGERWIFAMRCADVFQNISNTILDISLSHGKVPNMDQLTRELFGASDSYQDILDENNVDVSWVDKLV
Experiment: PBM E-score (8-mer binding enrichment) (E-score (-0.5 to 0.5)); higher = stronger / more preferred TF binding; most listed sequences are background and not binding sites
Settings: protein concentration: 200 nM; construct: GST-full length
Outline: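 For each ungapped eight-base word taken together with its reverse complement, the Universal PBM Analysis Suite assigned an E-score. Binding data came from GST-tagged yeast transcription factors, applied at about 100-200 nM, on universal all-10-mer Agilent arrays made double-stranded by primer extension. Fluorescent anti-GST marked bound protein, and scans were normalised with masliner.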

Row | Sequence | PBM E-score
1 | CGTTTCGA | 0.00109
2 | ACGTGGCC | -0.337
3 | CAACCCGA | 0.0843
4 | AACCTTGT | -0.244
5 | CGCTAGCG | 0.0896
6 | CAGGGGTA | -0.188
7 | ACCGTCAT | 0.324
8 | ACCACTAG | -0.135
9 | CCTCGACG | -0.0423
10 | CGGCCCAG | 0.113
11 | TCTTCCCA | -0.247
12 | GCGACAGC | 0.105
13 | AAGATGCT | -0.136
14 | AAGAATGA | -0.184
15 | CCCGTCCG | 0.135
16 | ACTCCAGC | -0.283
17 | CCAATCCA | -0.0685
18 | GACTCCCC | -0.107
19 | GCGGCGTA | 0.316
20 | AACCCCAC | 0.0426
21 | AACCCCAT | 0.156
22 | CAAGCACG | -0.16
23 | GCAAACAA | -0.143
24 | AGTCAAAC | 0.0585
25 | GGCGTCCA | 0.063

Row | Sequence | PBM E-score
26 | CAACGTTG | -0.0522
27 | AATTCGGA | 0.296
28 | CTCGTTAA | -0.0905
29 | ACGTTTAA | -0.129
30 | ATCTTTGC | -0.0121
31 | ACATAGGG | -0.112
32 | GCTTTACA | 0.0349
33 | GATAAACA | 0.0754
34 | CGGATCAG | -0.0313
35 | CAACATCG | 0.07
36 | ACGGGTAT | 0.256
37 | GGCAACTA | -0.101
38 | CCCAGAAG | 0.0619
39 | CAACCAGA | -0.147
40 | AGCCTTGG | -0.32
41 | AACTAGTA | -0.103
42 | AGAATACT | -0.0839
43 | AAGTGTCC | 0.188
44 | AACGAGTT | -0.109
45 | CAACTAAA | -0.0835
46 | ATGTATGA | -0.249
47 | GCACTCTA | -0.0909
48 | CCCATTGA | -0.0435
49 | GCCATCAC | -0.0842
50 | CGAGGCTA | -0.0771

Row | Sequence | PBM E-score
51 | CAAGTAAC | -0.163
52 | AACGAAAC | -0.129
53 | GGGCCCTA | -0.0134
54 | GGCGTCAC | 0.106
55 | AAACTTTG | -0.186
56 | AACATCTC | -0.0257
57 | GTAACCTA | 0.0501
58 | GCTCCAAC | -0.0725
59 | ACGATCAG | -0.272
60 | TGAAAGCA | -0.173
61 | CTGAGCCA | -0.051
62 | CAGGCGCC | 0.105
63 | GCCATAAC | -0.157
64 | AAGCGCAC | 0.105
65 | CTTGATAC | -0.218
66 | GGACACCA | -0.0728
67 | GAGCACTC | -0.181
68 | ATGTTAAG | 0.113
69 | GGTCTGGA | -0.177
70 | ACGAGCTA | -0.188
71 | GAAATCCC | 0.254
72 | CCTAAAAC | 0.128
73 | CTTCCACA | -0.19
74 | AGGATTAC | -0.121
75 | ATCGCCAC | 0.101

Row | Sequence | PBM E-score
76 | TACTCATA | -0.0803
77 | CGAATTAC | 0.0833
78 | GCCCGCTA | 0.233
79 | TGATGACA | -0.124
80 | TCCCGCGA | 0.264
81 | CGCCGTAG | 0.25
82 | CAAAACTC | 0.0797
83 | GGCGAACC | -0.0384
84 | ACTTATGC | 0.052
85 | GAGATATC | 0.0248
86 | CGATACAA | 0.0471
87 | AGAGAGCA | -0.0986
88 | ACCAATAC | 0.0152
89 | TTAACAAA | 0.0777
90 | GCGTCGCA | 0.0422
91 | CACAAATA | -0.0347
92 | CCGCGCGG | 0.404
93 | CGGGTCCA | 0.225
94 | AGGGTGCG | -0.0498
95 | ACAATACA | -0.0326
96 | GACGCCGA | 0.342
97 | GCCGGGAC | 0.241
98 | CCACCAGC | -0.125
99 | AGGAGCGG | 0.321
100 | AAGGCCAC | -0.145

Row | Sequence | PBM E-score
101 | GGAGGTAC | 0.118
102 | ATGCCACA | -0.266
103 | CCCCATTC | -0.143
104 | CGAGTTCC | -0.123
105 | TAATCATA | -0.0379
106 | GAAACTGC | -0.0793
107 | ATAGGGCA | -0.138
108 | CCATACCG | 0.202
109 | AACAGCAT | -0.086
110 | GACCGTCA | 0.121
111 | GCATGACC | -0.103
112 | AGTACCTA | -0.0642
113 | TATGAATA | 0.0249
114 | GTAAACAC | 0.096
115 | AGTTAACA | 0.0184
116 | CACTTTCA | -0.105
117 | AGCCAACG | -0.209
118 | CAGAACAA | -0.0962
119 | CCTCGAGC | -0.115
120 | AGCGAACT | -0.271
121 | GACATATC | 0.0776
122 | CCAGGGCA | -0.111
123 | CCCAGGAG | -0.253
124 | ATAAGGTC | 0.0097
125 | AGTACTTA | -0.175

Row | Sequence | PBM E-score
126 | ACGGGATA | 0.198
127 | GCAACTTA | -0.0671
128 | CCCTCGAA | -0.222
129 | CATAGCCG | 0.172
130 | ACCACTAC | -0.0721
131 | GTGCTAAA | 0.123
132 | TCGGAAAA | 0.133
133 | AATGACCA | -0.133
134 | CGTGCACA | -0.289
135 | AGTTCGAC | 0.023
136 | ATGCATTC | -0.203
137 | GCTCCGCA | 0.173
138 | CCAGTTCC | 0.0436
139 | TATAGCCA | -0.122
140 | CGGCGGCA | 0.411
141 | CGGCAGTC | 0.11
142 | ATCTCGCC | -0.0335
143 | TCCGGCCA | 0.23
144 | ATACGTTG | -0.107
145 | CGCATCAC | -0.0266
146 | CATGTCGA | -0.0944
147 | TAATTTGA | -0.0297
148 | TACTTATA | 0.0221
149 | AAAGATCT | -0.206
150 | AAACCTTT | 0.0851

Row | Sequence | PBM E-score
151 | AACCGCTA | 0.0216
152 | CGTCAAAC | 0.084
153 | ATCAATAA | -0.0466
154 | AAGTCGAA | -0.228
155 | CGCTGCGC | 0.013
156 | TCAGTCCA | -0.216
157 | CTTTGAAA | -0.0707
158 | GCTGTCCA | -0.0587
159 | AAGCTAGT | -0.221
160 | AACCAATT | -0.165
161 | AGCGTCGG | 0.318
162 | TAATACCA | 0.1
163 | ACAGAGAG | -0.365
164 | AACTTCTA | -0.212
165 | CCAGTTTA | -0.129
166 | ACGAGACC | 0.0349
167 | CGCAGGCG | 0.0835
168 | CCATGTTA | -0.174
169 | AGCGATAG | -0.221
170 | CCTCGTAA | -0.127
171 | TAGGCGAA | -0.0831
172 | AGGACCTA | 0.141
